According to patent publication US20220125947A1:

B1: VG9B66 (antibody, human IgG1, kappa)
heavy: EVQLVESGGGLVKPGGSLRLSCAASGFTFSTYTMNWVRQAPGKGLEWVSSISSSSFYMDYADSVKGRFTISRDNAKNSLSLLMNSLRAEDTAVYYCARDGDIVATIRGSFDYWGQGTMVTVSS[human IgG1 constant region omitted here]
light: EIVLTQSPSSLSTSVGDRVTITCRASQDITNFLAWYQQKPGKLPKLLIYTASTLQSGVPSRFSGSASGPDFTLTISSLQPEDVATYYCQKYNSAPFTFGPGTKVEIKRTVAAPSVFIFPPSDEQLKSGTASVVCLLNNFYPREAKVQWKVDNALQSGNSQESVTEQDSKDSTYSLSSTLTLSKADYEKHKVYACEVTHQGLSSPVTKSFNRGEC
B2: VG9B32 (antibody, human IgG1, kappa)
heavy: EVQLVQSGGDLLQPGGSLRLSCAASGFTFSRYAMNWVRQAPGKGLEWVSFISGTGYTVYYADSVKGRFTISRDNAKNSLYLQMNSLRDEDTAVYYCARDQEPGFDYWGQGTLVTVSS[human IgG1 constant region omitted here]
light: [about 100 residues omitted here][about 120 residues omitted here]
B3: VG9B57 (antibody, human IgG1, kappa)
heavy: EVQLVESGGGLVKPGGSLRLSCAASGFTFSSHDMNWVRQAPGKGLGWVSSISSSSSYIFYADSVKGRFTISRDNAKNSLYLQMSSLRAEDTAVYYCARDLGVGVRDYYYYGMDVWGQGTMVTVSS[human IgG1 constant region omitted here]
light: DIQMTQSPSAMSASVGDRVTITCRASQDITNYLAWFQQKPGKVPKRLIYAASSLQGGVPSRFSGSGSGTEFTLTISSLQPEDFSTYYCLQHDTYPYTFGQGTKLEIKRTVAAPSVFIFPPSDEQLKSGTASVVCLLNNFYPREAKVQWKVDNALQSGNSQESVTEQDSKDSTYSLSSTLTLSKADYEKHKVYACEVTHQGLSSPVTKSFNRGEC
B4: VG9B135 (antibody, human IgG1, kappa)
heavy: QVTLKESGPTLVTPSQTLTLTCTFSGFSLTTYGVGVGWIRQPPGKALEWLALIYWNDDKRYYPSLNNRLTITKDTSKHLVVLTLTNMDPVDTATYYCAHDYDFWSGYFDYWGQGTLVTVSS[human IgG1 constant region omitted here]
light: [about 200 residues omitted here]
B5: VG9B60 (antibody, human IgG1, kappa)
heavy: QVQLVQSGAEVKKPGASVKVSCKASGYTFTGYYMHWVRQAPGQGLEWMGRINPNSGVTHYAQKFQGRVTMTRDTSISTAYMELSRLRSDDTAVYYCARGGSLVRGVISGLDYWGQGTTVTVSS[human IgG1 constant region omitted here]
light: DIVMTQSPGTLSLSPGERATLSCRASQSFSGSYLAWYQQKPGQAPSLLIYGASSRATGIPDRFSGSGSGTDFTLTISRLEPEDFALYYCQQYGSSPPYTFGQGTKVEIKRTVAAPSVFIFPPSDEQLKSGTASVVCLLNNFYPREAKVQWKVDNALQSGNSQESVTEQDSKDSTYSLSSTLTLSKADYEKHKVYACEVTHQGLSSPVTKSFNRGEC
B6: VG9B409 (antibody, human IgG1, kappa)
heavy: EVQLVESGAEVKKPGASVKVSCKASGYTLTSYYMHWVRQAPGQGLEWMGIINPSGGSTSYAQKFQGRVTMTRDTSTSTVYMELSSLRSEDTAVYYCARGSYGWYFDLWGRGTLVTVSS[human IgG1 constant region omitted here]
light: EIVLTQSPGTLSLSPGERATLSCRASQSVTSSYLAWYQQKPGQTPRLLIYGASSRATGIPDRISGSGSGTDFTLTVSRLEPEDFAVYYCQQYGSSPPYTFGQGTKLEIKRTVAAPSVFIFPPSDEQLKSGTASVVCLLNNFYPREAKVQWKVDNALQSGNSQESVTEQDSKDSTYSLSSTLTLSKADYEKHKVYACEVTHQGLSSPVTKSFNRGEC
B7: VG9B411 (antibody, human IgG1, kappa)
heavy: EVQLVESGGGLVKPGGSLRLSCSASGFTFSNYDMNWVRQAPGKGLEWVSSISSSSSYIYYADSVKGRFTISRDNAKNSLYLQMNSLRAEDTAVYHCARDVGVTTDYYYYGMDVWGQGTTVTVSS[human IgG1 constant region omitted here]
light: EIVMTQSPSSVSASVGDRVTITCRASQGINSWLAWYQQDPYKAPKLLIYAASTLQSGVPSRFGGRGSGTEFTLTISSLQPEDFAVYYCQQYNNWPRTFGQGTKVDIKRTVAAPSVFIFPPSDEQLKSGTASVVCLLNNFYPREAKVQWKVDNALQSGNSQESVTEQDSKDSTYSLSSTLTLSKADYEKHKVYACEVTHQGLSSPVTKSFNRGEC
B8: VG9B163 (antibody, human IgG1, lambda)
heavy: QVQLVQSGGGLVKPGASLKLSCAASGFTFSNHGMSWVRQTSDKRLEWVASITRGGDTTYYPDNVKGRFTISRENAKNTLYLQMSSLKSDDTALYYCTRGPLTVGYAMDYWGQGTTVTVSS[human IgG1 constant region omitted here]
light: QLVLTQPPSVSAAPGQKVTISCSGNSSNIGHNYVSWYQQLPGTAPKLLIYDNNQRPSGIPDRFSGSKSDTSATLGITGLQTGDEADYYCGIWDSSLSIVVFGGGTKVTVLGQPKAAPSVTLFPPSSEELQANKATLVCLISDFYPGAVTVAWKADSSPVKAGVETTTPSKQSNNKYAASSYLSLTPEQWKSHRSYSCQVTHEGSTVEKTVAPTECS
B9: VG9B454 (antibody, human IgG1, lambda)
heavy: QVQLQESGPGLVKPSETLSLTCTVSGGSISNYYWSWIRQPAGKGLGWIGRIYSSGITNYNPSLKSRVTMSVDTSKNQLSLKLSSVTAADTAVYYCAGIVGVKGAFAIWGQGTMVTVSS[human IgG1 constant region omitted here]
light: QAVLTQPASVSGSPGQSITISCTGTSSDVGGYNYVSWYQQHPGKAPKLMIYEVSNRPSGVSNRFSGSKSGNTASLTISGLQAEDEADYYCSSYTSTSVVFGGGTKLTVLGQPKAAPSVTLFPPSSEELQANKATLVCLISDFYPGAVTVAWKADSSPVKAGVETTTPSKQSNNKYAASSYLSLTPEQWKSHRSYSCQVTHEGSTVEKTVAPTECS
B10: VG9B439 (antibody, human IgG1, lambda)
heavy: QVQLQQSGPGLVKPSETLSLTCTVSGGSISNYYWSWIRQPAGKGLGWIGRIYSSGITNYNPSLKSRVTMSVDTSKNQLSLKLSSVTAADTAVYYCAGIVGVKGAFAIWGQGTMVTVSS[human IgG1 constant region omitted here]
light: QSALTQPASVSGSPGQSITISCTGTSSDVGGYNYVSWYQQHPGKAPKLMIYEVSNRPSGVSNRFSGSKSGNTASLTISGLQAEDEADYYCSSYTSTSVVFGGGTKLTVLGQPKAAPSVTLFPPSSEELQANKATLVCLISDFYPGAVTVAWKADSSPVKAGVETTTPSKQSNNKYAASSYLSLTPEQWKSHRSYSCQVTHEGSTVEKTVAPTECS
B11: VG9B68 (antibody, human IgG1, kappa)
heavy: EVQLVESGAEVKKPGSSVKVSCKASGGTFSTYAISWVRQAPGQGLEWMGGIIPIFGTATYAQRFQDRVMITADKSTTTAYMELSSLRSEDTAVFYCARGVGWGSDYYYGLDVWGQGTMVTVSS[human IgG1 constant region omitted here]
light: EIVMTQSPLSSPVTLGQPASISCRSSQSLVHSDGNTYLSWLQQRPGQSPRLLIYKISNRFSGVPDRFSGSGAGTDFTLRITRVEPEDVGVYYCIQATHHPLTFGGGTRLEIKRTVAAPSVFIFPPSDEQLKSGTASVVCLLNNFYPREAKVQWKVDNALQSGNSQESVTEQDSKDSTYSLSSTLTLSKADYEKHKVYACEVTHQGLSSPVTKSFNRGEC
B12: VG9B449 (antibody, human IgG1, lambda)
heavy: QVQLQESGPGLVKPSETLSLTCTVSGGSISNYYWSWIRQPAGKGLGWIGRIYSSGITNYNPSLKSRVTMSVDTSKNQLSLKLSSVTAADTAVYYCAGIVGVKGAFAIWGQGTMVTVSS[human IgG1 constant region omitted here]
light: QAVLTQPASVSGSPGQSITISCTGTSSDVGGYNYVSWYQQHPGKAPKLMIYEVSNRPSGVSNRFSGSKSGNTASLTISGLQAEDEADYYCSSYTSTSVVFGGGTKVTVLGQPKAAPSVTLFPPSSEELQANKATLVCLISDFYPGAVTVAWKADSSPVKAGVETTTPSKQSNNKYAASSYLSLTPEQWKSHRSYSCQVTHEGSTVEKTVAPTECS

molecular target: T cell receptor (TCR) Vγ9 (TRGV9) (human), Q99603; experiment: cell-based or functional assay
Sequence (Q99603 21-122): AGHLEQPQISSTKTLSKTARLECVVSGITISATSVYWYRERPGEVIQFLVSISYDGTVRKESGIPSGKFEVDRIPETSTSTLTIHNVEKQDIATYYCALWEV

First: B1
Second: B2
The CD25+ (Vg9+ cells) of the first is higher: 25.4% for the first, 19.1% for the second.

Going from B3 to B4, the CD25+ (Vg9+ cells) rises from 17.1% to 20.6%.

Going from B5 to B6, the CD25+ (Vg9+ cells) rises from 9.1% to 18.7%.

With B7 the CD25+ (Vg9+ cells) was 10.8%.

Compared with B1, B2 is higher in CD71+ (Vg9+ cells): 84.6% for the first, 87.3% for the second.

Going from B3 to B4, the CD71+ (Vg9+ cells) rises from 77.4% to 77.7%.

First: B5
Second: B6
The CD71+ (Vg9+ cells) of the first is lower: 73% for the first, 80.6% for the second.

B7 showed a CD71+ (Vg9+ cells) of 75.4%.

Compared with B1, B2 is lower in Granzyme B (Luminex, supernatant): 470 for the first, 68 for the second.

Going from B3 to B4, the Granzyme B (Luminex, supernatant) falls from 468 to 270.

Compared with B5, B6 is lower in Granzyme B (Luminex, supernatant): 912 for the first, 585 for the second.

B7 was tested, and the Granzyme B (Luminex, supernatant) was 115.

Compared with B1, B2 is lower in IFNγ (Luminex, supernatant): 162 for the first, 44 for the second.

First: B3
Second: B4
The IFNγ (Luminex, supernatant) of the first is lower: 29 for the first, 57 for the second.

Compared with B5, B6 is lower in IFNγ (Luminex, supernatant): 280 for the first, 195 for the second.

B7 showed an IFNγ (Luminex, supernatant) of 51.

Going from B1 to B2, the IL6 (Luminex, supernatant) falls from 145 to 11.

First: B3
Second: B4
The IL6 (Luminex, supernatant) of the first is lower: 147 for the first, 717 for the second.

Going from B5 to B6, the IL6 (Luminex, supernatant) falls from 269 to 194.

Binder B7 has an IL6 (Luminex, supernatant) of 88.

Compared with B1, B2 is lower in TNFα (Luminex, supernatant): 405 for the first, 10 for the second.

Going from B3 to B4, the TNFα (Luminex, supernatant) falls from 349 to 225.

Compared with B5, B6 is lower in TNFα (Luminex, supernatant): 2420 for the first, 190 for the second.

B7 showed a TNFα (Luminex, supernatant) of 25.

First: B1
Second: B2
The Vg9 T cell % of the first is lower: 3.8% for the first, 5.1% for the second.

Compared with B3, B4 is higher in Vg9 T cell %: 4% for the first, 4.3% for the second.

Going from B5 to B6, the Vg9 T cell % rises from 2.9% to 3.2%.

Binder B7 has a Vg9 T cell % of 3%.

molecular target: TCR Vδ2 (TRDV2) on T cells in PBMCs (human), A0JD36; experiment: cell-based or functional assay
Sequence (A0JD36 20-115, stated change not applied): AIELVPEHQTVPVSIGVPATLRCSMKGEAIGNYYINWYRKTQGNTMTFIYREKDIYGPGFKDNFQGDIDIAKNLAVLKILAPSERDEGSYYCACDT

Going from B8 to B9, the Flow Staining: CD25+ (Vg9+ cells) rises from 9.7% to 39.9%.

First: B10
Second: B11
The Flow Staining: CD25+ (Vg9+ cells) of the first is lower: 13.8% for the first, 35.6% for the second.

With B12 the Flow Staining: CD25+ (Vg9+ cells) was 16.3%.

First: B8
Second: B9
The Flow Staining: CD71+ (Vg9+ cells) of the first is lower: 75.9% for the first, 92.7% for the second.

Going from B10 to B11, the Flow Staining: CD71+ (Vg9+ cells) rises from 86% to 93.5%.

With B12 the Flow Staining: CD71+ (Vg9+ cells) was 87.2%.

Going from B8 to B9, the Flow Staining: Vg9 T cell % rises from 3.7% to 5%.

Going from B10 to B11, the Flow Staining: Vg9 T cell % rises from 3.9% to 9.3%.

Work on B12 yielded a Flow Staining: Vg9 T cell % of 3.5%.

First: B8
Second: B9
The Luninex (supernatant): Granzyme B of the first is lower: 41 for the first, 2480 for the second.

Going from B10 to B11, the Luninex (supernatant): Granzyme B rises from 760 to 4200.

Binder B12 has a Luninex (supernatant): Granzyme B of 1090.

First: B8
Second: B9
The Luninex (supernatant): IL6 of the first is lower: 5 for the first, 458 for the second.

First: B10
Second: B11
The Luninex (supernatant): IL6 of the first is lower: 140 for the first, 539 for the second.

With B12 the Luninex (supernatant): IL6 was 131.

Compared with B8, B9 is higher in Luninex (supernatant): TNFα: 9 for the first, 2060 for the second.

Going from B10 to B11, the Luninex (supernatant): TNFα rises from 190 to 6830.

In the case of B12, the Luninex (supernatant): TNFα is reported as 266.

Compared with B9, B10 is lower in Luninex (supernatant): IFNγ: 1220 for the first, 167 for the second.

Compared with B11, B12 is lower in Luninex (supernatant): IFNγ: 1540 for the first, 256 for the second.
